Data taken from US9745597B2, “Compositions and methods for controlling fungal and bacterial diseases in plants” (priority 2014, dated 2017).

Tests used:
[1] = test system: Erwinia carotovora; assay: In vitro control of Erwinia carotovora, OD600 in 96-well plates (Example 27); format: cell-based; conditions: […], mixture = 95% cell-free whole broth + 5% adjuvant
Description: (§1) A whole broth culture of Bacillus subtilis QST713 was prepared in a soy-based medium. Bacillus subtilis cells were removed from the whole broth culture by centrifugation. […] After several hours, the OD600 in each well was measured and compared to the initial OD600 to determine the relative bacterial growth compared to that of the bacterial suspension in the untreated well.

[2] = test system: Alternaria solani; assay: Tomato early blight bioassay (Example 2); conditions: GENAPOL LRO 3000 ppm
Description: (§2) The present study investigated the efficacy against a variety of plant pathogens of the commercial product, […]® ASO (Bacillus subtilis QST713 fermentation product), with and without GENAPOL® LRO (sodium C12/C14-fatty alcohol diglycol ether sulfate). The application rates of […]® ASO refer to the amount of (1.67%) Bacillus subtilis QST713 contained in the product […]® ASO.
(§3) ® ASO was diluted in water to concentrations of 1000 ppm, 500 ppm, 250 ppm, and 125 ppm and applied to plants with or without GENAPOL® LRO applied at a concentration of 3000 ppm. Subsequently, the plants were inoculated with the various plant pathogens and scored for percent disease control with the following eight plant pathogen bioassays: (1) tomato late blight, Phytophthora infestans (“Late Blight”); (2) grape downy mildew, Plasmopara viticola (“Downy Mildew”); (3) cucumber powdery mildew, Sphaerotheca fuliginea (“Powdery Mildew”); (4) apple scab, Venturia inaequalis (“Scab”); (5) tomato early blight, Alternaria solani (“Early Blight”); (6) brown rust of snap bean, Uromyces appendiculatus (“Bean Rust”); (7) Asian soybean rust, Phakopsora pachyrhizi (“Soy Rust”); and (8) Botrytis grey mould on snap beans, Botrytis cinerea (“Grey Mould”).

[3] = test system: Phytophthora infestans
Description: as §2, §3

[4] = test system: Pseudomonas syringae pv. tomato; assay: In vivo control of Pseudomonas syringae pv. tomato on tomato plants (Example 31); conditions: average of three measurements
[5] = test system: Botrytis cinerea; assay: In vivo preventive test on Botrytis (beans) (Example 19); conditions: lesion size 3 days after inoculation
[6] = test system: Phytophthora infestans; conditions: rate 0.3%; 3 days after inoculation
Description: (§4) […]® ASO (Bacillus subtilis QST713 fermentation product) and the adjuvant GENAPOL® LRO (sodium C12/C14-fatty alcohol diglycol ether sulfate) were diluted in water to the desired concentrations and applied separately and in combination to young tomato plants. After the spray coating had dried on, the plants were inoculated with an aqueous spore suspension of Phytophthora infestans. Subsequently the plants were placed in an incubation cabinet at approximately 20° C. and a relative atmospheric humidity of 100%. The test was evaluated 3 days after the inoculation. 0% means an efficacy which corresponds to that of the untreated control, while an efficacy of 100% means that no disease is observed.

[7] = test system: Plasmopara viticola; assay: Grape downy mildew bioassay (Example 2)
Description: as §2, §3

[8] = test system: Botrytis cinerea; assay: Botrytis grey mould on snap beans bioassay (Example 2)
Description: as §2, §3

[9] = test system: Alternaria solani; assay: In vivo preventive test on Alternaria (tomatoes) (Example 11); conditions: rate 0.3%; 3 days after inoculation
Description: as §4, with “adjuvants GEROPON® DOS-PG (sodium-2-ethylhexylsulfosuccinate), SILWET® L-77 (polyalkyleneoxide modified heptamethyltrisiloxane),” for “adjuvant”, “sulfate), SYNPERONIC® PE-L64 (ethoxylated/propoxylated alcohol), NIMBUS® (paraffin mineral oil) or SC-TankMix (rapeseed oil methyl ester; castor oil ethoxylated)” for “sulfate)”, “Alternaria solani.” for “Phytophthora infestans.”, “control” for “control,”

[10] = test system: Erwinia amylovora; assay: In vivo control of Erwinia amylovora on apple blossoms (Example 30); conditions: after 6-7 days
Description: Apple blossoms were placed in a sugar solution and inoculated with a Fire Blight (Erwinia amylovora) bacterial suspension. The blossoms were then sprayed with the treatments shown in Table 40 at the indicated concentrations diluted in water. Streptomycin sulfate was included as a positive control. The blossoms were incubated at 23-25° C. and a relative humidity of 100%. After 6-7 days, the number of blossoms with bacterial ooze was determined, and the efficacy of each treatment was calculated. The efficacy was determined by the reduction in infected blossoms compared to the control blossoms treated with water. The test was carried out at least four times for each treatment, and the average disease control was reported.

[11] = test system: Uromyces appendiculatus; assay: Brown rust of snap bean bioassay (Example 2); conditions: GENAPOL LRO 3000 ppm
Description: as §2, §3

[12] = test system: Xanthomonas campestris pv. vesicatoria; assay: In vitro control of Xanthomonas campestris pv. vesicatoria, OD600 in 96-well plates (Example 25); format: cell-based; conditions: bacterial growth by OD600, mixture = 95% cell-free whole broth + 5% adjuvant
Description: as §1, with “medium as described above.” for “medium.”

[13] = test system: Plasmopara viticola; assay: In vivo preventive test on Plasmopara (grapevines) (Example 8); conditions: rate 0.3%; 6 days after inoculation
Description: […]® ASO (Bacillus subtilis QST713 fermentation product) and the adjuvants GENAPOL® LRO (sodium C12/C14-fatty alcohol diglycol ether sulfate), SPAN®20+TWEEN®20 (sorbitan monolaurate; sorbitan monododecanoate) or STICMAN® (synthetic latex) were diluted in water to the desired concentrations and applied separately and in combination to young grape plants. After the spray coating had dried on, the plants were inoculated with an aqueous spore suspension of Plasmopara viticola and remained for 1 day in an incubation cabinet at approximately 20° C. and a relative atmospheric humidity of 100%. Subsequently the plants were placed for 4 days in a greenhouse at approximately 21° C. and a relative atmospheric humidity of approximately 90%. The plants were then misted and placed for 1 day in an incubation cabinet.
The test was evaluated 6 days after the inoculation. 0% means an efficacy which corresponds to that of the untreated control, while an efficacy of 100% means that no disease is observed.

sodium C12/C14-fatty alcohol diglycol ether sulfate [GENAPOL ® LRO]
Efficacy in % Found ([1]; rate 0.11%): 13% | Efficacy in % Found ([1]; rate 0.22%): 1% | Efficacy in % Found ([1]; rate 0.44%): 36% | Percent Disease Control Early Blight [2]: 0% | Percent Disease Control Late Blight ([3]; GENAPOL LRO 3000 ppm): 0% | Efficacy in % Found ([3]; Late Blight, rate 3000 ppm): 0% | Efficacy in % ([4]; rate 0.25% v/v): 10% | Efficacy in % ([4]; rate 0.50% v/v): 50% | Efficacy in % ([4]; rate 1% v/v): 60% | Efficacy in % ([4]; rate 2% v/v): 74% | Efficacy in % ([4]; rate 4% v/v): 66% | Efficacy in % Found ([5]; rate 0.03%): 39% | Efficacy in % Found ([5]; rate 0.06%): 39% | Efficacy in % Found ([5]; rate 0.12%): 43% | Efficacy in % Found ([5]; rate 0.25%): 55% | Efficacy in % Found [6]: 0% | Efficacy in % Found ([7]; Downy Mildew, rate 3000 ppm): 59% | Percent Disease Control Downy Mildew ([7]; GENAPOL LRO 3000 ppm): 59% | Percent Disease Control Grey Mould ([8]; GENAPOL LRO 3000 ppm): 23% | Efficacy in % Found ([8]; Grey Mould, rate 3000 ppm): 23% | Efficacy in % Found [9]: 0% | Efficacy in % ([10]; concentration 0.5 % applied to blossoms): 15% | Efficacy in % ([10]; concentration 1 % applied to blossoms): 8% | Percent Disease Control Bean Rust [11]: 40% | Efficacy in % Found ([12]; rate 0.11%): 57% | Efficacy in % Found ([12]; rate 0.22%): 63% | Efficacy in % Found ([12]; rate 0.44%): 41% | Efficacy in % Found ([12]; rate 0.88%): 53% | Efficacy in % Found [13]: 59%

Read-outs that look alike come from different tables or passages of the source.
